From the supplement of paper PMC9542798

What was measured:
Assay in all cases: minimum inhibitory concentration
[1] = compound: O=C(N[C@H](CO)[C@H](O)c1ccc([N+](=O)[O-])cc1)C(Cl)Cl [Chloramphenicol]
Protocol: (§1)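 Broth microdilution MIC per ISO 10932 on precoated VetMIC Lact-1 plates (tylosin, vancomycin and ampicillin plates prepared manually) against lactic acid bacteria and bifidobacteria isolates. Plates were read visually after 48 h anaerobic incubation (bifidobacteria 72 h; enterococci and staphylococci 24 h aerobic) at species-specific temperatures of 30 or 37 °C. Values prefixed with < or > are outside the tested dilution range.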

[2] = compound: CNC(C)C1CCC(N)C(OC2C(N)CC(N)C(OC3OCC(C)(O)C(NC)C3O)C2O)O1 [Gentamicin]
Protocol: as §1

[3] = compound: NC[C@@H]1O[C@H](O[C@H]2[C@@H](O)[C@H](O[C@@H]3[C@@H](O)[C@H](N)C[C@H](N)[C@H]3O[C@H]3O[C@H](CN)[C@@H](O)[C@H](O)[C@H]3N)O[C@@H]2CO)[C@H](N)[C@@H](O)[C@@H]1O [Neomycin]
Protocol: as §1

[4] = compound: CN[C@@H]1[C@H](O[C@H]2[C@H](O[C@H]3[C@H](O)[C@@H](O)[C@H](N=C(N)N)[C@@H](O)[C@@H]3N=C(N)N)O[C@@H](C)[C@]2(O)C=O)O[C@@H](CO)[C@H](O)[C@H]1O [Streptomycin]
Protocol: as §1

[5] = compound: CC[C@H]1OC(=O)[C@H](C)[C@@H](O[C@H]2C[C@@](C)(OC)[C@@H](O)[C@H](C)O2)[C@H](C)[C@@H](O[C@@H]2O[C@H](C)C[C@H](N(C)C)[C@H]2O)[C@](C)(O)C[C@@H](C)C(=O)[C@H](C)[C@@H](O)[C@]1(C)O [Erythromycin]
Protocol: as §1

[6] = compound: CC1(C)S[C@@H]2[C@H](NC(=O)[C@H](N)c3ccccc3)C(=O)N2[C@H]1C(=O)O [Ampicillin]
Protocol: as §1

[7] = compound: NC[C@H]1O[C@H](O[C@H]2[C@H](O)[C@@H](O[C@H]3O[C@H](CO)[C@@H](O)[C@H](N)[C@H]3O)[C@H](N)C[C@@H]2N)[C@H](O)[C@@H](O)[C@@H]1O [Kanamycin]
Protocol: as §1

[8] = compound: CCC[C@@H]1C[C@@H](C(=O)N[C@@H]([C@H]2O[C@H](SC)[C@H](O)[C@@H](O)[C@H]2O)[C@H](C)Cl)N(C)C1 [Clindamycin]
Protocol: as §1

[9] = compound: CN(C)[C@@H]1C(O)=C(C(N)=O)C(=O)[C@@]2(O)C(O)=C3C(=O)c4c(O)cccc4[C@@](C)(O)[C@H]3C[C@@H]12 [Tetracycline]
Protocol: as §1
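Further: isolates derived from commercial starter, protective, probiotic or feed-additive cultures, from fermented products, from human gut mucosa or feces, and from human milk or colostrum.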

Row | Test System | minimum inhibitory concentration [1] [µg/mL] | minimum inhibitory concentration [2] [µg/mL] | minimum inhibitory concentration [3] [µg/mL] | minimum inhibitory concentration [4] [µg/mL] | minimum inhibitory concentration [5] [µg/mL] | minimum inhibitory concentration [6] [µg/mL] | minimum inhibitory concentration [7] [µg/mL] | minimum inhibitory concentration [8] [µg/mL] | minimum inhibitory concentration [9] [µg/mL]
1 | Lacticaseibacillus paracasei IM698 (strain group: human intestinal mucosa or faeces) | 8 | 4 | 8 | 16 | 0.25 | 1 | 32 | 0.25 | 2
2 | Lacticaseibacillus paracasei IM836 (strain group: probiotic strains) | 4 | 16 | 32 | 64 | 0.25 | 2 | 256 | 0.25 | 1
3 | Lacticaseibacillus paracasei IM1011 (strain group: non-starter strains) | 4 | 2 | 8 | 16 | 0.12 | 1 | 32 | 0.12 | 1
4 | Lacticaseibacillus paracasei IM1015 (strain group: non-starter strains) | 4 | 2 | 4 | 16 | 0.25 | 1 | 32 | 0.12 | 1
5 | Lacticaseibacillus paracasei IM1036 (strain group: non-starter strains) | 4 | 2 | 4 | 16 | 0.12 | 0.5 | 32 | 0.12 | 1
6 | Lacticaseibacillus paracasei IM1080 (strain group: non-starter strains) | 4 | 1 | 1 | 8 | 0.12 | 2 | 16 | 0.25 | 1
7 | Lacticaseibacillus paracasei IM1083 (strain group: non-starter strains) | 4 | 4 | 8 | 32 | 0.25 | 1 | 64 | 0.12 | 1
8 | Lacticaseibacillus paracasei IM1093 (strain group: non-starter strains) | 4 | 1 | 2 | 8 | 0.12 | 1 | 16 | < 0.03 | 0.5
9 | Lacticaseibacillus paracasei IM1102 (strain group: non-starter strains) | 4 | 2 | 4 | 16 | 0.12 | 2 | 32 | 0.25 | 1
10 | Lacticaseibacillus paracasei IM1105 (strain group: non-starter strains) | 4 | 2 | 4 | 16 | 0.12 | 2 | 64 | 0.5 | 1
11 | Lacticaseibacillus paracasei IM1118 (strain group: non-starter strains) | 4 | 4 | 4 | 32 | 0.12 | 2 | 64 | 0.25 | 1
12 | Lacticaseibacillus paracasei IM1137 (strain group: non-starter strains) | 8 | 4 | 4 | 64 | 0.5 | 2 | 64 | 0.25 | 32
13 | Lacticaseibacillus paracasei IM1140 (strain group: non-starter strains) | 4 | 1 | 1 | 8 | 0.12 | 4 | 16 | 0.12 | 1
14 | Lacticaseibacillus paracasei IM1141 (strain group: non-starter strains) | 4 | 2 | 4 | 16 | 0.12 | 2 | 32 | 0.12 | 1
15 | Lacticaseibacillus paracasei IM1280 (strain group: non-starter strains) | 4 | 4 | 4 | 16 | 0.12 | 1 | 64 | 0.25 | 1
16 | Lacticaseibacillus paracasei IM1281 (strain group: non-starter strains) | 4 | 4 | 4 | 32 | 0.12 | 1 | 64 | 0.25 | 1
17 | Lacticaseibacillus paracasei IM1282 (strain group: non-starter strains) | 4 | 2 | 4 | 32 | 0.12 | 1 | 64 | 0.25 | 1
18 | Lacticaseibacillus paracasei IM1283 (strain group: non-starter strains) | 4 | 2 | 4 | 16 | 0.12 | 1 | 64 | 0.25 | 1
19 | Lacticaseibacillus paracasei IM1286 (strain group: non-starter strains) | 4 | 4 | 16 | 32 | 0.12 | 2 | 64 | 0.12 | 1
